# The other results are listed elsewhere or left out.
# Tests used:
# Test in all cases: glycan array binding signal (z-score within array); higher = stronger binding
# Settings in all cases: glycan notation: IUPAC condensed, linker removed
# [1] = target: Fuc(a1-2)Gal
# Outline: (§1)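 Columns mapping to the same glycan were averaged after glycan names were converted to IUPAC-condensed notation. The data come from 3228 arrays in the Consortium for Functional Glycomics database, limited to those with an available protein sequence. Binding is reported as a within-array Z-score averaged across arrays of one protein sequence and across linkers.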
# [2] = target: Fuc(a1-2)Gal(b1-3)GalNAc
# Outline: as §1
# [3] = target: Fuc(a1-2)Gal(b1-3)GalNAc(a1-3)[Fuc(a1-2)]Gal(b1-4)Glc
# Outline: as §1
# [4] = target: Fuc(a1-2)Gal(b1-3)GalNAc(a1-3)[Fuc(a1-2)]Gal(b1-4)GlcNAc
# Outline: as §1
# [5] = target: Fuc(a1-2)Gal(b1-3)GalNAc(b1-3)Gal
# Outline: as §1
# [6] = target: Fuc(a1-2)Gal(b1-3)GalNAc(b1-3)Gal(a1-4)Gal(b1-4)Glc
# Outline: as §1
# [7] = target: Fuc(a1-2)Gal(b1-3)GalNAc(b1-4)[Neu5Ac(a2-3)]Gal(b1-4)Glc
# Outline: as §1
# [8] = target: Fuc(a1-2)Gal(b1-3)GlcNAc
# Outline: as §1
# [9] = target: Fuc(a1-2)Gal(b1-3)GlcNAc(b1-2)Man(a1-3)[Fuc(a1-2)Gal(b1-3)GlcNAc(b1-2)Man(a1-6)]Man(b1-4)GlcNAc(b1-4)GlcNAc
# Outline: as §1
# [10] = target: Fuc(a1-2)Gal(b1-3)GlcNAc(b1-2)Man(a1-3)[Fuc(a1-2)Gal(b1-3)GlcNAc(b1-2)Man(a1-6)]Man(b1-4)GlcNAc(b1-4)[Fuc(a1-6)]GlcNAc
# Outline: as §1
# [11] = target: Fuc(a1-2)Gal(b1-3)GlcNAc(b1-3)Gal(b1-4)Glc
# Outline: as §1
# [12] = target: Fuc(a1-2)Gal(b1-3)GlcNAc(b1-3)GalNAc
# Outline: as §1
# [13] = target: Fuc(a1-2)Gal(b1-3)GlcNAc(b1-3)[Fuc(a1-2)Gal(b1-3)GlcNAc(b1-6)]GalNAc
# Outline: as §1
# [14] = target: Fuc(a1-2)Gal(b1-3)GlcNAc(b1-3)[Gal(b1-4)GlcNAc(b1-6)]Gal(b1-4)Glc
# Outline: as §1
# [15] = target: Fuc(a1-2)Gal(b1-3)GlcNAc(b1-3)[Neu5Ac(a2-6)Gal(b1-4)GlcNAc(b1-6)]Gal(b1-4)Glc
# Outline: as §1
# [16] = target: Fuc(a1-2)Gal(b1-3)GlcNAc6S
# Outline: as §1
# [17] = target: Fuc(a1-2)Gal(b1-3)[Fuc(a1-4)]GlcNAc
# Outline: as §1
# [18] = target: Fuc(a1-2)Gal(b1-3)[Fuc(a1-4)]GlcNAc(b1-2)Man(a1-3)[Fuc(a1-2)Gal(b1-3)[Fuc(a1-4)]GlcNAc(b1-2)Man(a1-3)]Man(b1-4)GlcNAc(b1-4)GlcNAc
# Outline: as §1
# [19] = target: Fuc(a1-2)Gal(b1-3)[Fuc(a1-4)]GlcNAc(b1-2)Man(a1-3)[Fuc(a1-2)Gal(b1-3)[Fuc(a1-4)]GlcNAc(b1-2)Man(a1-6)]Man(b1-4)GlcNAc(b1-4)[Fuc(a1-6)]GlcNAc(b1-4)[Fuc(a1-6)]GlcNAc
# Outline: as §1
# [20] = target: Fuc(a1-2)Gal(b1-3)[Fuc(a1-4)]GlcNAc(b1-3)[Fuc(a1-3)[Gal(b1-4)]GlcNAc(b1-6)]Gal(b1-4)Glc
# Outline: as §1
# [21] = target: Fuc(a1-2)Gal(b1-3)[Fuc(a1-4)]GlcNAc(b1-3)[Gal(b1-4)GlcNAc(b1-6)]Gal(b1-4)Glc
# Outline: as §1
# [22] = target: Fuc(a1-2)Gal(b1-4)Glc
# Outline: as §1
# [23] = target: Fuc(a1-2)Gal(b1-4)Glc6S
# Outline: as §1
# [24] = target: Fuc(a1-2)Gal(b1-4)GlcNAc
# Outline: as §1
# [25] = target: Fuc(a1-2)Gal(b1-4)GlcNAc(b1-2)Man
# Outline: as §1
# [26] = target: Fuc(a1-2)Gal(b1-4)GlcNAc(b1-2)Man(a1-3)[Fuc(a1-2)Gal(b1-4)GlcNAc(b1-2)Man(a1-6)]Man(b1-4)GlcNAc(b1-4)GlcNAc
# Outline: as §1
# [27] = target: Fuc(a1-2)Gal(b1-4)GlcNAc(b1-2)Man(a1-3)[Fuc(a1-2)Gal(b1-4)GlcNAc(b1-2)Man(a1-6)]Man(b1-4)GlcNAc(b1-4)[Fuc(a1-6)]GlcNAc
# Outline: as §1
# [28] = target: Fuc(a1-2)Gal(b1-4)GlcNAc(b1-2)[Fuc(a1-2)Gal(b1-4)GlcNAc(b1-4)]Man(a1-3)[Fuc(a1-2)Gal(b1-4)GlcNAc(b1-2)Man(a1-6)]Man(b1-4)GlcNAc(b1-4)GlcNAc
# Outline: as §1
# [29] = target: Fuc(a1-2)Gal(b1-4)GlcNAc(b1-3)Gal(b1-4)GlcNAc
# Outline: as §1
# [30] = target: Fuc(a1-2)Gal(b1-4)GlcNAc(b1-3)Gal(b1-4)GlcNAc(b1-2)Man(a1-3)[Fuc(a1-2)Gal(b1-4)GlcNAc(b1-3)Gal(b1-4)GlcNAc(b1-2)Man(a1-6)]Man(b1-4)GlcNAc(b1-4)GlcNAc
# Outline: as §1
binder,measurement,setting,value
GS7807E-bfa-538-23-538 (Bacteroides fragilis) (protein) TDSFESFNTNEAGFDNDSKKQDFNYYGIPLGIIQQGIYFNYDWGSGKNWPFQTMQNLGADLFSGYVHDFNPFNEGKNNSTYYMMDGWNGSTWDNTYGYIMPEVQKSETINEKDNIGFFGITKILKVELMHRLSDLYGPIVYTQFGSKTGSTPDTQQEAYKAFFNDLDTGIAKIREYQKANPDIESFAKFDILMPQGKRTFSEWIRFANSLRLRLAVRIAMADSKLAVAEAQKALTDEEGLLEGNDEVVAVSTSSGYTNPFGEINKAWGEVFMNANMESLLVGYEDPRMEKYFDKATGSDATSLIDYKGTYKGIRQGTGFSHKNYNGHSKSTITQQTDAVLMTPAEVWFLRAEAALRGWSSESVKDCYEKGVKASFAQWGAAGAEAYLESDRKPSDYVDAFKAANNVKAVNTLTPKWDDAAGNEDKLGRIITQKWLAMFPEGGEAWAEQRRTGYPRLFPVLVNQSEGTVDTNLGPRRLNFFVGIKTTNPEQYTQLVNALGGIDNCGTRLWWDTGRNF,glycan array binding signal (z-score),[1],-0.69
same,glycan array binding signal (z-score),[2],-0.7
same,glycan array binding signal (z-score),[3],-0.431
same,glycan array binding signal (z-score),[4],-0.557
same,glycan array binding signal (z-score),[5],-0.644
same,glycan array binding signal (z-score),[6],-0.439
same,glycan array binding signal (z-score),[7],-0.645
same,glycan array binding signal (z-score),[8],-0.623
same,glycan array binding signal (z-score),[9],3.42
same,glycan array binding signal (z-score),[10],0.117
same,glycan array binding signal (z-score),[11],-0.602
same,glycan array binding signal (z-score),[12],-0.218
same,glycan array binding signal (z-score),[13],0.796
same,glycan array binding signal (z-score),[14],1.03
same,glycan array binding signal (z-score),[15],1.06
same,glycan array binding signal (z-score),[16],-0.635
same,glycan array binding signal (z-score),[17],-0.622
same,glycan array binding signal (z-score),[18],0.046
same,glycan array binding signal (z-score),[19],-0.121
same,glycan array binding signal (z-score),[20],-0.426
same,glycan array binding signal (z-score),[21],-0.553
same,glycan array binding signal (z-score),[22],-0.662
same,glycan array binding signal (z-score),[23],-0.576
same,glycan array binding signal (z-score),[24],-0.678
same,glycan array binding signal (z-score),[25],-0.64
same,glycan array binding signal (z-score),[26],1.21
same,glycan array binding signal (z-score),[27],-0.382
same,glycan array binding signal (z-score),[28],0.002
same,glycan array binding signal (z-score),[29],-0.652
same,glycan array binding signal (z-score),[30],0.102

# From the supplement of paper PMC8728848
